Results as given in the supplement of paper PMC7826260.
Some of the results follow. Viral Rep nickase domains cut single-stranded DNA in vitro (3 µM enzyme, 1 h, 37 °C); shown is the middle of each 90-letter strand. A value is the log2 ratio of uncut reads to the pool without enzyme; more negative means more cut, near 0 not cut, and no call is made. The scaling is to total reads; uncut strands gain when others are lost, and binding without cutting may add a little.

Columns and labels:
Assay in all cases: uncleaved DNA left, log2 of reads against the no-enzyme library (log2 ratio); higher = less cleavage (more negative = more Rep cleavage of the k-mer); sequences stand for … in CTCGTCCG…ACCGGAGA
[1] = tested on: T1, Rep nickase domain of Muscovy duck circovirus
T1 sequence (residues 1-111, tag not shown): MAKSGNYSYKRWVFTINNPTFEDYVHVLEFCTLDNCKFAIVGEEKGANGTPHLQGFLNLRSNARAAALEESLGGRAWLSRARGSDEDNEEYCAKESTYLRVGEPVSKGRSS
Procedure: (§1)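 A pool of 90-nt single-stranded DNAs with seven random bases just before the constant AC of the nick site (name = the seven bases) was cut by 3 µM recombinant His6-SUMO-tagged Rep nickase domain (300 nM DNA, 50 mM HEPES pH 8.0, 50 mM NaCl, 1 mM MnCl2, 1 h, 37 °C, three replicates). Uncut DNA was amplified and sequenced.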

[2] = tested on: T2, Rep nickase domain of banana bunchy top virus
T2 sequence (residues 1-94, tag not shown): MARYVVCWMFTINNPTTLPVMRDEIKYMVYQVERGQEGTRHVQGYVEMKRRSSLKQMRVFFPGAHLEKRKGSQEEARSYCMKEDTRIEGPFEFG
Procedure: as §1

[3] = tested on: T3, Rep nickase domain of cabbage leaf curl virus
T3 sequence (residues 1-116, tag not shown): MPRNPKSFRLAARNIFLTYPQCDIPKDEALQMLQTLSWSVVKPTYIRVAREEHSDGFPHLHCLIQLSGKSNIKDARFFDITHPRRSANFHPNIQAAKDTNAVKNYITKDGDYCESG
Procedure: as §1

[4] = tested on: T4, Rep nickase domain of chickpea chlorotic dwarf virus
T4 sequence (residues 1-124, tag not shown): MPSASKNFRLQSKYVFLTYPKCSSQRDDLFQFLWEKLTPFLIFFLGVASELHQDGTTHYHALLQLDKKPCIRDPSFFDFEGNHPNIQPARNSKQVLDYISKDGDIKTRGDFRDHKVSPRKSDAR
Procedure: as §1

[5] = tested on: T5, Rep nickase domain of faba bean necrotic yellows virus
T5 sequence (residues 1-98, tag not shown): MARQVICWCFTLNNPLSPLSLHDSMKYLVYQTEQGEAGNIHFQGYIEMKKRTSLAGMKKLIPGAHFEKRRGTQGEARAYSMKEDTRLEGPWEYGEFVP
Procedure: as §1

[6] = tested on: T6, Rep nickase domain of maize striate mosaic virus
T6 sequence (residues 1-117, tag not shown): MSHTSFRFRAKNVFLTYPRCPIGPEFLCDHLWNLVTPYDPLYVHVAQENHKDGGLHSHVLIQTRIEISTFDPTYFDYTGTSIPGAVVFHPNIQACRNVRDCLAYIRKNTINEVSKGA
Procedure: as §1

[7] = tested on: T7, Rep nickase domain of porcine circovirus 2
T7 sequence (residues 2-116, tag not shown): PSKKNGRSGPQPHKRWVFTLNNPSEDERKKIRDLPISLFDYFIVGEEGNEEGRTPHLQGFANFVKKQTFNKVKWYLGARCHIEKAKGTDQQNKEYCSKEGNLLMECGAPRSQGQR
Procedure: as §1

[8] = tested on: T8, Rep nickase domain of tomato yellow leaf curl virus
T8 sequence (residues 1-136, tag not shown): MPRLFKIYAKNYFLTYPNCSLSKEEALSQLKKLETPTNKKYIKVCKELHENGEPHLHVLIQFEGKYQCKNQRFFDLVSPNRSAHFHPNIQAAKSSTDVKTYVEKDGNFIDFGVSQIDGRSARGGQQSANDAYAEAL
Procedure: as §1

[9] = tested on: T9, Rep nickase domain of wheat dwarf virus
T9 sequence (residues 1-137, tag not shown): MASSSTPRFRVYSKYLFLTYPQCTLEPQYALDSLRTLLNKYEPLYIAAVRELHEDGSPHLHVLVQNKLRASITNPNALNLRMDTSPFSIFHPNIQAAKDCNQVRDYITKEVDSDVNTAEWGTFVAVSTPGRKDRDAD
Procedure: as §1

Sequence	uncleaved DNA left (log2) [1]	uncleaved DNA left (log2) [2]	uncleaved DNA left (log2) [3]	uncleaved DNA left (log2) [4]	uncleaved DNA left (log2) [5]	uncleaved DNA left (log2) [6]	uncleaved DNA left (log2) [7]	uncleaved DNA left (log2) [8]	uncleaved DNA left (log2) [9]
GTATGGA	-0.0324	0.0958	0.296	0.666	-0.0817	0.722	0.0533	-0.0104	0.0597
GGGCGTC	0.0685	0.0944	0.803	1.75	-0.0919	2.11	0.159	-0.0307	0.121
TTTCGGC	0.0355	-0.0737	0.223	0.24	0.0017	-0.0415	0.0605	-0.149	0.0145
GTCGCGC	-0.118	-0.0475	-0.386	-0.405	-0.0267	-0.411	0.107	0.0462	-0.181
TCCGCAA	-0.0694	-0.092	-0.159	-0.543	-0.0937	-0.68	-0.0655	-0.0954	-0.166
AGTTTAC	-0.0486	-0.0377	0.119	0.248	0.0468	0.329	-0.0758	-0.000999	-0.0236
TCGTGAG	0.0812	-0.0437	-0.47	-0.713	0.024	-1.04	0.0775	0.08	-0.0648
CCTTCAG	0.0517	-0.169	-0.676	-0.548	0.0133	-1.03	0.178	0.0122	-0.191
CTAGAAC	0.0878	0.0787	0.0652	-0.327	0.0792	-0.452	0.195	0.00659	-0.0361
CGAATGG	-0.0248	-0.0203	-0.112	0.462	-0.0686	0.476	0.0578	-0.0489	0.00665
ACAATGT	0.0122	-0.0833	-0.255	-0.689	0.0138	-0.874	0.0597	-0.0574	-0.0607
TTAACAC	0.13	0.0536	-0.345	-1.54	-0.0104	-0.408	0.0704	0.156	0.00373
CACGTAA	-0.0518	0.162	0.0137	-0.696	0.119	-0.498	0.0673	-0.0157	0.114
GGGCATT	-0.106	-0.135	0.712	1.97	0.0099	2.23	0.0287	-0.135	0.182
TTAAATG	0.0959	-0.00443	-0.385	-0.628	-0.00126	-1	0.17	0.00768	-0.0365
